Source: a compilation of properties of binary mixtures (doi:10.1016/j.jct.2022.106742)
The densities may have been worked out from excess volumes.

Test: xn = mol fraction of the nth substance listed
Details: 100 kPa

CC[n+]1ccn(C)c1.O=S(=O)([O-])C(F)(F)F + CCO
mass density (298.15 K, x1 = 0.0516): 878.6 kg/m3 | mass density (298.15 K, x1 = 0.2004): 1058.6 kg/m3 | mass density (298.15 K, x1 = 0.2936): 1133.4 kg/m3 | mass density (298.15 K, x1 = 0.3991): 1197.9 kg/m3 | mass density (298.15 K, x1 = 0.4994): 1245.8 kg/m3 | mass density (298.15 K, x1 = 0.6992): 1315.5 kg/m3 | mass density (298.15 K, x1 = 0.8994): 1363.1 kg/m3 | mass density (298.15 K, x1 = 0.9499): 1372.9 kg/m3 | mass density (303.15 K, x1 = 0.0516): 874.2 kg/m3 | mass density (303.15 K, x1 = 0.2004): 1054.3 kg/m3 | mass density (303.15 K, x1 = 0.2936): 1129.3 kg/m3 | mass density (303.15 K, x1 = 0.3991): 1193.5 kg/m3 | mass density (303.15 K, x1 = 0.4994): 1241 kg/m3 | mass density (303.15 K, x1 = 0.7899): 1333.8 kg/m3 | mass density (303.15 K, x1 = 0.9499): 1367.4 kg/m3 | mass density (303.15 K, x1 = 1): 1376.3 kg/m3 | mass density (308.15 K, x1 = 0.0516): 869.7 kg/m3 | mass density (308.15 K, x1 = 0.1001): 939.9 kg/m3 | mass density (308.15 K, x1 = 0.2004): 1049.8 kg/m3 | mass density (308.15 K, x1 = 0.2936): 1124.8 kg/m3 | mass density (308.15 K, x1 = 0.3991): 1189.3 kg/m3 | mass density (308.15 K, x1 = 0.4994): 1236.8 kg/m3 | mass density (308.15 K, x1 = 0.6018): 1276 kg/m3 | mass density (308.15 K, x1 = 0.7899): 1329.7 kg/m3 | mass density (308.15 K, x1 = 0.8994): 1353.7 kg/m3 | mass density (308.15 K, x1 = 1): 1372.2 kg/m3

CCO + CC[n+]1ccn(C)c1.O=S(=O)([O-])C(F)(F)F
mass density (298.15 K, x2 = 0): 786.1 kg/m3 | mass density (303.15 K, x2 = 0): 781.9 kg/m3
